Experimental data: US20230109208A1 (priority 2020, published 2023)

Tested on: inflammation-induced lung injury resulting from Coronavirus (SARS-CoV-2) infection
Conditions: paper examples

B1: Lenzilumab: Humaneered recombinant monoclonal antibody, derived from mouse antibody LMM102, targeting and neutralizing human GM-CSF (antibody, chains of the INN, looked up, V domains shown)
VH: QVQLVQSGAEVKKPGASVKVSCKASGYSFTNYYIHWVRQAPGQRLEWMGWINAGNGNTKYSQKFQGRVTITRDTSASTAYMELSSLRSEDTAVYYCVRRQRFPYYFDYWGQGTLVTVSS
VL: EIVLTQSPATLSVSPGERATLSCRASQSVGTNVAWYQQKPGQAPRVLIYSTSSRATGITDRFSGSGSGTDFTLTISRLEPEDFAVYYCQQFNKSPLTFGGGTKVEIK
Q: How did the “2 point improvement in the NIAID eight point ordinal hospital scale” value turn out when B1 was run?
A: Its value is “faster”.

Q: And the “number of hospital days” value?
A: Its value is “reduction”.

Q: What about the “permanent pulmonary function impairment” value of the same molecule?
A: Its value is “reduction”.

Q: What about the “time to recovery (6, 7, or 8 on the eight point ordinal hospital scale)” value of the same molecule?
A: Its value is “faster”.

Q: And the mortality rates (regimen per example)?
A: Its mortality rates is “reduction”.

Q: What about the “patients requiring ICU admission” value (regimen per example) of the same molecule?
A: Its value is “reduction”.

Q: And the “patients requiring mechanical ventilation” value (regimen per example)?
A: The value was “reduction”.
